Reference: article PMC4336329 (PLoS ONE, 2015)
Screen size: about 310,000 compounds; about 2,200 (0.71%) showed an effect of 50% or more. The effect is printed as a negative number. The list shows a part of the results.

biological target: human ether-à-go-go-related gene (hERG) potassium channel (human, UniProt Q12809); test: primary screen, population patch clamp on CHO cells stably expressing hERG
Sequence (Q12809 whole entry, looked up): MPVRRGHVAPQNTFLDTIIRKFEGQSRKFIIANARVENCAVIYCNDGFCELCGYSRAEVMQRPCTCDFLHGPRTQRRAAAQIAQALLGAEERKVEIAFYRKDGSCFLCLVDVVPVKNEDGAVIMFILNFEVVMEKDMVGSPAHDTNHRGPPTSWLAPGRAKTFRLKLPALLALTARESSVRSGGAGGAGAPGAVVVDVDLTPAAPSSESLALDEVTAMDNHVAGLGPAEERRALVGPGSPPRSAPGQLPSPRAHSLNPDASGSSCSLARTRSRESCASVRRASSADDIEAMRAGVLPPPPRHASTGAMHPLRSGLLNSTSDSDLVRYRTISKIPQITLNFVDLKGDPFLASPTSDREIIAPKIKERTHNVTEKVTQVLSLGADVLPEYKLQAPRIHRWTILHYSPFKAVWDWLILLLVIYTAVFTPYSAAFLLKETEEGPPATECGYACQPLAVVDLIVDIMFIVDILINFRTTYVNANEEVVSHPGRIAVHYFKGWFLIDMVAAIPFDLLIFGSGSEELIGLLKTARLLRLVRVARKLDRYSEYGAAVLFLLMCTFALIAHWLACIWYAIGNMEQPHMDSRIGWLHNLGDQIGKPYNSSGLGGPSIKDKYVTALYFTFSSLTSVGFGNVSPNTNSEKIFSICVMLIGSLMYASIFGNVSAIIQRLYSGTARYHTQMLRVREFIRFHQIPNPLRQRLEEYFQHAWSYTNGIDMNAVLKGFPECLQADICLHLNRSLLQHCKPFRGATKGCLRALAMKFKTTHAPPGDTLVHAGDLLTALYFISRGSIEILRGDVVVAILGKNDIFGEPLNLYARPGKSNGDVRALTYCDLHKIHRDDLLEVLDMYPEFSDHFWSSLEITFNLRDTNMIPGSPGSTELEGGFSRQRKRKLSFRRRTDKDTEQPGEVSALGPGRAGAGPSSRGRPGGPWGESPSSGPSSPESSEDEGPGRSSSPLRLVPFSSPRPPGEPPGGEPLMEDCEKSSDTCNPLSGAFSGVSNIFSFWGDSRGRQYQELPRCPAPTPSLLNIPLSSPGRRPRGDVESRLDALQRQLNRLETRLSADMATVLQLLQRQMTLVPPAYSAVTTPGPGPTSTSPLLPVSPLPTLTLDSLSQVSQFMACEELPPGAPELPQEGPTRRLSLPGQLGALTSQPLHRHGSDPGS

First: Cc1ccsc1C1C(C#N)=C(N)OC2=C1C(=O)CCC2 (stereo not drawn)
Second: CC1(C)C(=O)OC(c2cccs2)C2(CCCCC2)C1=O (stereo not drawn)
The “hERG current change (%, negative = inhibition) at 1uM” value of the first is higher: 10.5% for the first, 5.41% for the second.

Compared with `CCN(CC)CCn1c(=S)[nH]c2ccc(Br)cc2c1=O`, `CCN(CC)CCn1c(=S)[nH]c2ncccc2c1=O` is higher in “hERG current change (%, negative = inhibition) at 1uM” value: -27.2% for the first, 2.09% for the second.

First: CCOC(=O)c1cccc(NC(=O)c2c(NCc3ccccc3)[nH]c(=O)[nH]c2=O)c1
Second: Cc1cccc2cc(CNCc3ccccc3)c(Cl)nc12
The “hERG current change (%, negative = inhibition) at 1uM” value of the first is lower: 7.11% for the first, 12.5% for the second.

Going from `CCOC(=O)NCCc1ccc(OC)cc1` to `CCOC(=O)C(NC(=O)NCc1ccc(OC)cc1)(OCC)C(F)(F)F` (stereo not drawn), the “hERG current change (%, negative = inhibition) at 1uM” value rises from 12.3% to 13.6%.

Going from `O=C(NC1CCCCC1)C(c1ccco1)N(Cc1cccnc1)C(=O)C1COc2ccccc2O1` (stereo not drawn) to `C/C(=N\N1C(=O)c2ccccc2NC1c1ccco1)c1ccccc1O` (stereo not drawn), the “hERG current change (%, negative = inhibition) at 1uM” value rises from 5.59% to 21.9%.

Going from `COc1ccc(-n2nnnc2SCC(=O)Nc2ccc(OC)cc2OC)cc1` to `COc1ccc(Oc2ccc(C(F)(F)F)cc2NC(=O)c2ccc(OC)cc2)cc1`, the “hERG current change (%, negative = inhibition) at 1uM” value rises from 12.8% to 13.1%.

Compared with `COc1ccccc1S(=O)(=O)Cc1ccc(C(=O)NCCN2CCCC2)o1`, `CC(C)C(NS(=O)(=O)c1cccs1)C(=O)NCCCN1CCCCCC1` (stereo not drawn) is lower in “hERG current change (%, negative = inhibition) at 1uM” value: 14.2% for the first, 10.4% for the second.

First: CC1Sc2ccc(S(=O)(=O)CCC(=O)NC3CCCC(C)C3C)cc2NC1=O (stereo not drawn)
Second: Cc1ccc(NS(=O)(=O)c2ccc3c(c2)CC(=O)N3)cc1C
The “hERG current change (%, negative = inhibition) at 1uM” value of the first is higher: 22.2% for the first, 14% for the second.

Going from `CCNC(=S)Nc1nc2c(cc1C(=O)OCC)CCCC2` to `Cc1cc(Cl)c2oc(C(=O)NCCC3CCCCO3)c(C)c2c1` (stereo not drawn), the “hERG current change (%, negative = inhibition) at 1uM” value rises from 13.1% to 14.1%.

First: C[C@H]1CN=C(N(C)C)N1CCC1CCCCC1
Second: CN1CCN(CCCNC(=O)C2CC(=O)N(C3CCCCC3)C2)CC1 (stereo not drawn)
The “hERG current change (%, negative = inhibition) at 1uM” value of the first is higher: 13.6% for the first, 7.52% for the second.

Going from `COc1ccc(CCN=C(N)NS(=O)(=O)c2cccs2)cc1OC` to `COc1ccc(-c2cn3cc(C)ccc3n2)cc1OC.Cl`, the “hERG current change (%, negative = inhibition) at 1uM” value falls from 10.8% to 5.46%.

First: O=C(O)C1=NN(c2ccccc2)C(=O)CC1
Second: CC(C)N1CC(C(=O)Nc2ccccc2)CC1=O (stereo not drawn)
The “hERG current change (%, negative = inhibition) at 1uM” value of the first is higher: 16.1% for the first, 15.7% for the second.

Compared with `COCCCNc1nc2c(c(=O)n(Cc3ccc(Cl)cc3)c(=O)n2C)n1C`, `Cn1c(N/N=C2\CCCc3ccccc32)nc2c1c(=O)n(Cc1ccccc1)c(=O)n2C` is lower in “hERG current change (%, negative = inhibition) at 1uM” value: 6% for the first, -0.318% for the second.

First: CCOc1ccc2nc(NC3=NC(c4ccc(OC)cc4)CC(=O)N3)nc(C)c2c1 (stereo not drawn)
Second: COc1ccc(OCC(=O)Nc2c(Cl)ccc3nsnc23)cc1
The “hERG current change (%, negative = inhibition) at 1uM” value of the first is higher: 6.72% for the first, 0.685% for the second.

Going from `Cn1cc(C(=O)Nc2ccc(C#N)cc2)c2ccccc2c1=O` to `CC(C)C(=O)c1cn(Cc2ccc(C#N)cc2)c2ccccc12`, the “hERG current change (%, negative = inhibition) at 1uM” value falls from 10.7% to 1.95%.

First: Cc1cc(NC(=O)Cn2c(=O)oc3ccc(Cl)cc32)no1
Second: CC(=O)c1cccc(NC(=O)c2cc(-c3cccs3)on2)c1
The “hERG current change (%, negative = inhibition) at 1uM” value of the first is lower: 13.5% for the first, 18.3% for the second.

Compared with `Cc1cc(Cl)cc(C)c1OCCCCN1CCOCC1`, `O=C(NCCCN1CCOCC1)c1ccc2c(c1)N(Cc1ccccc1)C(=O)c1ccccc1S2=O` (stereo not drawn) is higher in “hERG current change (%, negative = inhibition) at 1uM” value: -5.5% for the first, 9.92% for the second.

Going from `CC(C)c1cccc(C(C)C)c1NC(=S)Nc1cccc(Cl)c1` to `O=C(NC(NC(=S)Nc1ccccc1Cl)C(Cl)(Cl)Cl)c1cccc(Cl)c1` (stereo not drawn), the “hERG current change (%, negative = inhibition) at 1uM” value rises from 4.68% to 9.62%.

First: Cc1c(Cl)cccc1NC(=O)CNC(=O)c1ccc(F)cc1
Second: Cc1ccc(S(=O)(=O)N(C)C)cc1NC(=O)COC(=O)c1ccc(Cl)cc1
The “hERG current change (%, negative = inhibition) at 1uM” value of the first is higher: 18% for the first, 9.01% for the second.

Compared with `CCOC(=O)CSC(=S)NC(=O)c1ccc(OC)cc1`, `CCOc1ccc(CC(=O)N2CCN=C2SC)cc1` is lower in “hERG current change (%, negative = inhibition) at 1uM” value: 20.3% for the first, 6.65% for the second.

First: Cc1ccc(S(=O)(=O)N2CCCC2C(=O)NCCc2nc3ccccc3[nH]2)cc1 (stereo not drawn)
Second: Cc1ccccc1C(=O)Nc1ccc(S(=O)(=O)N2CCOCC2)cc1
The “hERG current change (%, negative = inhibition) at 1uM” value of the first is lower: 5.84% for the first, 9.47% for the second.

Compared with `O=C(NCc1ccccc1)c1ccc2nc(-c3ccco3)c(-c3ccco3)nc2c1`, `COc1ccccc1NC(=O)c1ccccc1NC(=O)c1cc(Cl)ccc1NC(=O)c1ccco1` is higher in “hERG current change (%, negative = inhibition) at 1uM” value: 2.51% for the first, 6.24% for the second.

First: CN(Cc1ccccc1)c1ncnc2sccc12
Second: O=C(CCc1nc(-c2ccccc2Cl)no1)NCCc1ccccc1
The “hERG current change (%, negative = inhibition) at 1uM” value of the first is higher: 7.75% for the first, 7.62% for the second.

Going from `CCOC(=O)C1=C(C)Nc2ccccc2N=C1NC(=O)/C=C/c1ccc(OC)cc1OC` to `COc1ccc(N2CC(C(=O)N(C)CC(=O)Nc3ccc(Cl)c(C(F)(F)F)c3)CC2=O)c(OC)c1` (stereo not drawn), the “hERG current change (%, negative = inhibition) at 1uM” value rises from -3.31% to 4.92%.

Going from `O=C1C(=O)N(CC2CCCO2)C(c2ccccc2[N+](=O)[O-])/C1=C(/O)c1ccccc1` (stereo not drawn) to `O=C(OC(C(=O)Nc1ccc([N+](=O)[O-])cc1Br)c1ccccc1)c1ccccc1` (stereo not drawn), the “hERG current change (%, negative = inhibition) at 1uM” value falls from 10.2% to 0.0853%.

Going from `COc1cc(CN2CCN(S(=O)(=O)c3ccc(F)cc3)CC2)cc(OC)c1OC.O=C(O)C(=O)O` to `COC(=O)CN1C(=O)COc2ccc(S(=O)(=O)N3CCOCC3)cc21`, the “hERG current change (%, negative = inhibition) at 1uM” value rises from 6.91% to 14.5%.

Compared with `Cc1ccccc1NC(=O)C(=O)NCCc1c[nH]c2ccccc12`, `Cc1ccc(NC(=O)CCC(=O)OC(C)C(=O)c2ccccc2)cc1` (stereo not drawn) is higher in “hERG current change (%, negative = inhibition) at 1uM” value: 4.74% for the first, 12.8% for the second.

Going from `CC1(C)OC(=O)C(=CSc2ccc(C(C)(C)C)cc2)C(=O)O1` to `CC1N(O)C(C)(C)C(c2ccccc2)=[N+]1[O-]` (stereo not drawn), the “hERG current change (%, negative = inhibition) at 1uM” value falls from 10.7% to 8.85%.

Compared with `Cn1ncc(N=Cc2c(O)ccc3ccccc23)c1C(=O)N1CCOCC1`, `CC1(C(=O)Nc2ccc3ccccc3c2)CC1(Br)Br` (stereo not drawn) is lower in “hERG current change (%, negative = inhibition) at 1uM” value: 8.07% for the first, 6.42% for the second.

Compared with `O=C(N/N=C/c1c(O)n(C2CCCCC2)c(=S)[nH]c1=O)c1ccccc1O`, `CC(C)Oc1cccc(C(=O)C2CCCN(C(=O)c3noc4c3CCCC4)C2)c1` (stereo not drawn) is lower in “hERG current change (%, negative = inhibition) at 1uM” value: 12.7% for the first, -10.9% for the second.

Compared with `Cc1cc2ncn(CS(C)(=O)=O)c2cc1C`, `Cc1sc(CO)c(Sc2ccccc2)c1C(=O)O` is lower in “hERG current change (%, negative = inhibition) at 1uM” value: 16.2% for the first, 11.7% for the second.

Compared with `O=C(O)c1ccccc1-c1nc2ccccc2n1-c1ccccc1`, `c1ccc(C(c2ccccc2)c2ccn[nH]2)cc1` is lower in “hERG current change (%, negative = inhibition) at 1uM” value: 12% for the first, 10.5% for the second.

Going from `O=C(O)C1C(c2ccccc2)C(C(=O)OCCCO)C1c1ccccc1` (stereo not drawn) to `O=[N+]([O-])c1ccccc1N/N=C/c1ccccc1`, the “hERG current change (%, negative = inhibition) at 1uM” value rises from 2.06% to 13.3%.

First: CCOC(=O)N1CCC(c2nc(C)sc2C(=O)O)CC1
Second: CCOC(=O)C1(CCOc2ccccc2)CCN(Cc2cnc(C)s2)CC1
The “hERG current change (%, negative = inhibition) at 1uM” value of the first is higher: 17.8% for the first, -18.8% for the second.

First: COC(C/C=C/[C@@H](O)[C@H](C)OCc1ccccc1)OC
Second: Cc1ccc(S(=O)(=O)N[C@@H](C)C(=O)N2CCC(C(=O)N[C@@H](Cc3ccccc3)C(=O)O)CC2)cc1
The “hERG current change (%, negative = inhibition) at 1uM” value of the first is lower: 14.4% for the first, 17.7% for the second.

Going from `CC(C)(C)CN1CCNC(=O)C1CC(=O)NCCN1CCCc2ccccc21` (stereo not drawn) to `CC(C)C1N(C(=O)CN2CCCC2)CCN1S(=O)(=O)c1ccccc1` (stereo not drawn), the “hERG current change (%, negative = inhibition) at 1uM” value rises from 7.93% to 9.14%.

Going from `O=C(NNS(=O)(=O)c1ccc([N+](=O)[O-])cc1)c1ccc([N+](=O)[O-])cc1` to `CC(NC(=O)c1ccc(Cl)cc1)c1nnc(SCc2ccc([N+](=O)[O-])cc2)n1C` (stereo not drawn), the “hERG current change (%, negative = inhibition) at 1uM” value falls from 17% to -17.1%.

Going from `C[n+]1ccccc1/C=C/c1cc(Br)ccc1O.[I-]` to `CC1Oc2ccccc2OC1(O)c1ccc2ccccc2n1` (stereo not drawn), the “hERG current change (%, negative = inhibition) at 1uM” value falls from 12.9% to 2.17%.

First: O=S(Cc1ccc(Br)cc1)Cc1nnc(SCc2ccc(Cl)cc2)n1-c1ccccc1 (stereo not drawn)
Second: Cn1c(CS(=O)Cc2c(Cl)cccc2Cl)nnc1SCc1c(Cl)cccc1Cl (stereo not drawn)
The “hERG current change (%, negative = inhibition) at 1uM” value of the first is higher: -0.797% for the first, -11.4% for the second.

Compared with `CCOCCCn1c(=S)[nH]c2cc(C(=O)NCCOC)ccc2c1=O`, `CCn1c(=N)c(S(=O)(=O)c2ccccc2)cc2c(=O)n3ccccc3nc21` is lower in “hERG current change (%, negative = inhibition) at 1uM” value: 11.3% for the first, 0.819% for the second.

First: COc1ccccc1-c1nnc(NC(=O)c2ccc3c(c2)OCO3)s1
Second: CC1CCCCN1C(=O)CSc1nc2cc3c(cc2c(=O)n1Cc1ccc2c(c1)OCO2)OCO3 (stereo not drawn)
The “hERG current change (%, negative = inhibition) at 1uM” value of the first is lower: 4.67% for the first, 5.74% for the second.

Compared with `Cc1ccc(Cn2c(SCC(=O)N/N=C/c3ccc(C)o3)nc3ccccc32)cc1`, `NS(=O)(=O)c1ccc(CCNS(=O)(=O)c2cccc3nsnc23)cc1` is higher in “hERG current change (%, negative = inhibition) at 1uM” value: -13% for the first, 9.84% for the second.

First: O=Cc1ccc(Oc2nc(Cl)ncc2F)cc1
Second: Clc1ccc(-c2cccs2)nn1
The “hERG current change (%, negative = inhibition) at 1uM” value of the first is higher: 15.2% for the first, 7.52% for the second.

First: CCOC(=O)c1cc2sccc2n1CC(=O)N1CCN(C(=O)c2ccco2)CC1
Second: CC1CCN(C(=O)c2cccc(NC(=O)c3cccs3)c2)CC1
The “hERG current change (%, negative = inhibition) at 1uM” value of the first is lower: -15.9% for the first, 16.6% for the second.

Going from `CC(OC(=O)CCN1C(=O)C2CC=CCC2C1=O)C(=O)Nc1cccc(Cl)c1` (stereo not drawn) to `CCCCOc1ccc(C2C(=O)N(C3CCCCC3)CC(=O)N2CC2CCCO2)cc1` (stereo not drawn), the “hERG current change (%, negative = inhibition) at 1uM” value falls from -4.43% to -9.42%.
